# In PubChem BioAssay AID686978 (National Center for Advancing Translational Sciences (NCATS), 2013):
# About 64,000 (15%) of roughly 420,000 compounds were called active. Inconclusive means that the source gave no clear call. Such entries were picked first, then a sample of the others. Calls follow the shape of the dose curve; as a rule, active = well fitted inhibition curve with a large enough effect; inconclusive = small, poorly fitted or top-dose-only effect; inactive = flat fitted curve, though single readings scatter. Potencies of inconclusive entries are left out as doubtful fits.
# Experiment: qHTS for Inhibitors of human tyrosyl-DNA phosphodiesterase 1 (TDP1): qHTS in cells in absence of CPT; also: nearly all actives have a fitted effect of over 55% in size
# Details: DT40 Tdp1-/- hTDP1 cells, no CPT, ATP luminescence, 48 h; activity change, negative = growth inhibition: at 46.2 µM (top of the series) unless noted
# How it was run: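 Growth kinetics read by CellTiter-Glo luminescence after ≥48 hr at 37 °C. Cells: DT40 Tdp1-/- stably carrying human TDP1, 400 per well, compound exposure in the absence of CPT (DMSO vehicle).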
# % is scaled to controls: 0 for no effect and ±100 for the full control effect; potency is read from the fitted curve at half-maximal effect; tags tell the direction and shape of the fitted curve.
SMILES,"activity change, negative = growth inhibition",Potency
COc1ccc(OC)c(-n2c(-c3ccn[nH]3)n[nH]c2=S)c1,inactive: -17.3%,
CCCCN1CC(=O)N2[C@H]3c4ccc(OC)cc4OC[C@@H]3[C@H](C(=O)OCC)[C@]2(C)C1=O,inactive: -21.3%,
c1ccc2c(c1)CCN(c1nc3ccccc3n3cnnc13)C2,,"inconclusive [inhibitor, single point]"
CCOc1ccc2oc(C(=O)N(CC)CC(=O)Nc3c(F)cccc3F)c(C)c2c1,,"inconclusive [inhibitor, single point]"
O=C(O)[C@@H]1CC(O)CN1C(=O)CCc1c[nH]c2ccccc12 (some centres not stated),inactive: -2.9%,
CCOC(=O)N1CCN(C(=O)CN2C(=O)NC(c3ccccc3)(c3ccccc3)C2=O)CC1,inactive: -20.9%,
O=C(O)c1cccc(S(=O)(=O)N2CCOCC2)c1,inactive: 1.08%,
CC1=NN(c2nc(-c3ccc(C)cc3)cs2)C(=O)C1N=Nc1ccc2ccccc2c1 (configuration not stated),,"inconclusive [inhibitor, partial curve]"
Cc1cc(C(=O)N2CCCC(CO)(Cc3ccc(F)cc3)C2)c(C)o1 (configuration not stated),,active: 23.1 µM
CCc1ccc(/C=N/Nc2ncnc3nc[nH]c23)cc1,,"inconclusive [inhibitor, partial curve]"
COc1cc(CN2CC(=O)N(c3ccc(C)c(C)c3)C2=S)cc(OC)c1OC,,"inconclusive [inhibitor, single point]"
COc1cc2c(cc1NC(=O)CN1CCN(S(=O)(=O)c3ccc(F)cc3)CC1)oc1ccccc12,,"inconclusive [inhibitor, full curve]"
CC(C)Nc1nc(NC(C)C)nc(N(C)N)n1,,"inconclusive [inhibitor, partial curve]"
COc1ccc(CN(C)C(=O)c2ccc(Cl)c(S(=O)(=O)NCc3cccnc3)c2)cc1F,,"inconclusive [inhibitor, single point]"
O=C(CN1CCOCC1)Nc1ccc2c(c1)OCO2,inactive: 3.32%,
Cc1ccc2nc3c(c(N)c2c1)CCN3c1ccccc1,,active: 18.4 µM
Cc1ccc(CCNC(c2ccc(F)cc2)c2nnc(-c3ccccc3Cl)o2)cc1 (configuration not stated),,"inconclusive [inhibitor, single point]"
Cc1cc(NC(=O)c2cccc(C)c2[N+](=O)[O-])no1,inactive: -1.17%,
Oc1ccc(Br)cc1-c1cc(-c2ccc(Cl)cc2)n[nH]1,,"inconclusive [inhibitor, single point]"
CCOc1ccc(CNC(=O)c2cccc(NC(=O)N3CCSc4ncccc43)c2)cc1,,active: 23.1 µM
Cc1ccc(SCCNC(=S)Nc2cc(C)ccc2C)cc1,,"inconclusive [inhibitor, single point]"
COc1ccc(C(C)(NC(C)=O)c2nc(-c3cnc4ccccc4c3)cs2)cc1 (configuration not stated),,"inconclusive [inhibitor, single point]"
CCOC(=O)c1c(NC(=O)Cn2nc([N+](=O)[O-])c(Br)c2C)sc2c1CCC(C)C2 (configuration not stated),,"inconclusive [inhibitor, partial curve]"
COc1cc2cc3c4c(cc(OC)c(OC)c4c2cc1OC)CCN3C,,active: 11.9 µM

SMILES,"activity change, negative = growth inhibition",Potency
O=C(NC1CCN(C(=O)NCc2ccccc2)CC1)c1cccc(F)c1,inactive: -14.5%,
Cc1ccnc(NS(=O)(=O)c2ccc(NC(=O)CC(C)c3ccccc3)cc2)n1 (configuration not stated),inactive: 10.7%,
CN(C)c1ccc(N=Cc2ccncc2)cc1,,active: 5.62 µM
CCn1c(C)nc2cc(C(=O)N/N=C/c3cccc(OC)c3O)ccc21,,"inconclusive [inhibitor, single point]"
O=C(CSc1nc2cccc(F)c2c(=O)n1-c1ccccc1)Nc1ccc2c(c1)CCC2,,"inconclusive [inhibitor, single point]"
O=C(Nc1cccnc1)c1cc(-c2cc(Cl)ccc2O)n[nH]1,,"inconclusive [inhibitor, partial curve, poor fit]"
CC(C)Cn1cc(NC(=O)Nc2cccc(C(F)(F)F)c2)c2ccccc2c1=O,,"inconclusive [inhibitor, single point]"
CC(=O)N1CCc2cc(S(=O)(=O)NC(CC(C)C)C(=O)Nc3ccc(C(C)C)cc3)ccc21 (configuration not stated),,"inconclusive [inhibitor, single point]"
S=C(NCc1ccco1)Nc1ccc2c(c1)OCCO2,inactive: -15.8%,
O=C(CNS(=O)(=O)c1ccccc1)N/N=C/c1ccccc1[N+](=O)[O-],inactive: -22.2%,
CC(=O)Nc1ccc(S(=O)(=O)NCC2CC3CCC2C3)cc1 (configuration not stated),,"inconclusive [inhibitor, partial curve, poor fit]"
COc1ccc(-c2noc(C3CCCN(S(=O)(=O)c4cccc(Cl)c4)C3)n2)cc1OC (configuration not stated),,"inconclusive [inhibitor, single point]"
Cc1nn(-c2ccccc2)c(N)c1N=Nc1ccccc1,,active: 20.6 µM
Cc1nc(-c2ccccc2)sc1C(=O)Nc1ccc(S(N)(=O)=O)cc1,,active: 13 µM
CCOC(=O)c1ccc(NC(=O)Cc2cccs2)cc1,,"inconclusive [inhibitor, partial curve]"
CCN(Cc1ccncc1)C(=O)CSc1ccc2ccccc2c1,,"inconclusive [inhibitor, single point]"
O=C(CN1CCC(O)(c2cccc(F)c2)CC1)NCCc1c[nH]c2ccccc12,,"inconclusive [inhibitor, single point]"
CCOc1ccccc1N1C(=O)CC(Sc2ccccc2N)C1=O (configuration not stated),,"inconclusive [inhibitor, single point]"
CC(=O)N1c2ccc(S(=O)(=O)N3CCCCCC3)cc2CC1C(=O)NC(C)C (configuration not stated),inactive: -4.96%,
N#Cc1ccc(Cn2c(-c3ccc(F)cc3)noc2=O)cc1,inactive: -1.78%,
COC(=O)c1cc(NC(=O)c2ccoc2C)cc(C(=O)OC)c1,,"inconclusive [inhibitor, single point]"
COc1cc(S(=O)(=O)N(Cc2ccc(C)cc2)C2CCCCC2)ccc1-n1cnnn1,,active: 23.1 µM
O=C(CSc1ccccn1)N1CCN(c2cccc(Cl)c2)CC1,,"inconclusive [inhibitor, single point]"
Cc1cc(-c2ccc(C)c(S(=O)(=O)N3CCC(C)CC3)c2)on1,,"inconclusive [inhibitor, single point]"

SMILES,"activity change, negative = growth inhibition",Potency
COc1ccc(C(=O)CSc2nnc(CNc3nc(-c4ccccc4)cs3)n2C)cc1,,"inconclusive [inhibitor, single point]"
CCCCCCC1(C)NC(=S)N(c2ccccc2)N1 (configuration not stated),,"inconclusive [inhibitor, single point]"
CCOC(=O)c1c(C)sc(-c2c(-c3ccc4c(c3)OCCO4)[nH]c3c2c(=O)n(C)c(=O)n3C)c1O,,active: 18.4 µM
Cc1cc(C)nc(NNC2=CC(=[N+]3CCCC3)CCC2)n1,,"inconclusive [inhibitor, single point]"
O=C(NC(=S)NCCCN1CCOCC1)c1ccco1,,"inconclusive [inhibitor, single point]"
COc1ccc(-n2c(=O)c3ccccc3n(Cc3ccccc3F)c2=O)cc1OC,,"inconclusive [inhibitor, single point]"
Cn1ncc(Cl)c1C(=O)NCC1CCCO1 (configuration not stated),inactive: 9.27%,
O=C(N[C@@H](Cc1ccccc1)C(=O)OCc1ccccc1)c1nc[nH]c1C(=O)N[C@@H](Cc1ccccc1)C(=O)OCc1ccccc1,,"inconclusive [inhibitor, single point]"
CC(C)CC(=O)Nc1nc2c(s1)CC(C(C)(C)C)CC2 (configuration not stated),,active: 14.6 µM
Cc1nnc(C)c2c(C)n(-c3ccc4ncccc4c3)c(C)c12,,"inconclusive [inhibitor, single point]"
O=C(Nc1ccc(Oc2ccc(NC(=O)Nc3ccc([N+](=O)[O-])cc3)cc2)cc1)Nc1ccc([N+](=O)[O-])cc1,,active: 2.06 µM
Oc1c(C=C2N=c3ccccc3=N2)sc(=S)n1-c1ccc(F)cc1,inconclusive: -36.3% [inhibitor],"inconclusive [inhibitor, partial curve]"
O=C(CS(=O)(=O)c1ccccc1)c1cc2ccccc2oc1=O,,"inconclusive [inhibitor, single point]"
CC(=O)c1ccc(NC(=O)C(Cc2ccccc2)n2cccc2)cc1 (configuration not stated),,"inconclusive [inhibitor, single point]"
CCOc1ccc2nc(NC(=O)C3CCCN(S(=O)(=O)c4c(C)noc4C)C3)sc2c1 (configuration not stated),,"inconclusive [inhibitor, single point]"
N#C/C(=C/c1ccc(Sc2nc3ccccc3[nH]2)o1)c1cccc(Br)c1,,"inconclusive [inhibitor, single point]"
O=C(Nc1ccc(Br)cc1)N1CCCCC1,inactive: -22.2%,
COc1ccc(C(=O)Nc2cccc(-c3ccc4nncn4n3)c2)cc1,,active: 14.6 µM
CCOC(=O)N1CCC(N2CCN(S(=O)(=O)c3ccc(NC(C)=O)cc3)CC2)CC1,,"inconclusive [inhibitor, partial curve]"
CC1(C)C(C=C(Cl)Cl)C1C(=O)N(Cc1cccc(Cl)c1)C1CCS(=O)(=O)C1 (configuration not stated),inactive: -26.7%,
Cc1ccoc1C(=O)Nc1ccc2ccccc2c1,,"inconclusive [inhibitor, single point]"
CCOC(=O)Nc1ccc(C(=O)c2ccncc2)cc1,,"inconclusive [inhibitor, single point]"
COc1cc(F)ccc1-c1csc(C(O)c2ccc(F)c(F)c2)n1 (configuration not stated),,active: 13 µM
